Results as given in publication PMC12153800.
No constants are given. Whether binding was seen depends on the method and setting. For part of these data: In cells and extracts the contact can be indirect. Some binding calls cover weakened binding; strength is not graded here.

Sequences of proteins named here, by UniProt entry; tags and fusion partners are left off. Residues count along the entry.
UniProt Q9EQD0, residues 27-585: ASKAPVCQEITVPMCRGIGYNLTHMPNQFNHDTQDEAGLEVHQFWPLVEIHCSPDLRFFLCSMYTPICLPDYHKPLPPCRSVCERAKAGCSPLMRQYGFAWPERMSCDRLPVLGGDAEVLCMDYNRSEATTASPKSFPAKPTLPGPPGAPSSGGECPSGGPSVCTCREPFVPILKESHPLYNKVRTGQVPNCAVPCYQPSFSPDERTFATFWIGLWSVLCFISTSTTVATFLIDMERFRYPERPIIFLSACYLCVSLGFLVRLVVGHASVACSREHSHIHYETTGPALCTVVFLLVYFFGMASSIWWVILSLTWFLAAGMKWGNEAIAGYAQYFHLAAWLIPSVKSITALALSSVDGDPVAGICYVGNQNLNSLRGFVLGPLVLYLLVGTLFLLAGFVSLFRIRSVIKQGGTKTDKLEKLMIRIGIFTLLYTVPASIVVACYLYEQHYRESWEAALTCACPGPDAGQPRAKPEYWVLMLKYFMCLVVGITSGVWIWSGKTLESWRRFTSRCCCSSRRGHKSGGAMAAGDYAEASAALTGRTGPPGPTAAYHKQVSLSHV
UniProt Q61091, residues 28-685: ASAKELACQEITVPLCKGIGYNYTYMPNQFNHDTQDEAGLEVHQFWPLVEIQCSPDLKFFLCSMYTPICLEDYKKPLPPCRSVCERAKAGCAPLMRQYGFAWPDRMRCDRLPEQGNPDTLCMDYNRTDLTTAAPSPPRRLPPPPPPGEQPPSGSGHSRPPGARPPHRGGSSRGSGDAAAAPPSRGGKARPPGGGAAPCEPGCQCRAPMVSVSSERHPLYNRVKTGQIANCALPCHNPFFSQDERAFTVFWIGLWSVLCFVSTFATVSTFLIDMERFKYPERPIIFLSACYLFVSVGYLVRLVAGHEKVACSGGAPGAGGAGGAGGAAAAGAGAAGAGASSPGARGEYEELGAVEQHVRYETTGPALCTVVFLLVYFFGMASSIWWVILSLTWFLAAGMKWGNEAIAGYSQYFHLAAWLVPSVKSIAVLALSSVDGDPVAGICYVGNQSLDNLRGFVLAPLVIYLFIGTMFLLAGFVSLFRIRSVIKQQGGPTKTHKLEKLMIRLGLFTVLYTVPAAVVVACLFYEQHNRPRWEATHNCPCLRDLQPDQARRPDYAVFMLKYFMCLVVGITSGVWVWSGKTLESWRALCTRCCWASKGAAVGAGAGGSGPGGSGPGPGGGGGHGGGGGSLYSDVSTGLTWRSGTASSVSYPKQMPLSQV
UniProt P27467, residues 19-352: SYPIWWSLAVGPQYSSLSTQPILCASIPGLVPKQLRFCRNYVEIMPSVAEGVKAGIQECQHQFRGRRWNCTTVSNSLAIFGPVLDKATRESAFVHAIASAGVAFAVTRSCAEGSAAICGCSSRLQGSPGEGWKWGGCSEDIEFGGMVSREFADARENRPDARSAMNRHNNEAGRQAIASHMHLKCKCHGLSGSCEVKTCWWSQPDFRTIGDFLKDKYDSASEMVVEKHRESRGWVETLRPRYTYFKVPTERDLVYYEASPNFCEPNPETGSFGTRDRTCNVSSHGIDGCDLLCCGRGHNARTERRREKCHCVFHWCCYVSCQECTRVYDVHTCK
UniProt O00744, residues 29-389: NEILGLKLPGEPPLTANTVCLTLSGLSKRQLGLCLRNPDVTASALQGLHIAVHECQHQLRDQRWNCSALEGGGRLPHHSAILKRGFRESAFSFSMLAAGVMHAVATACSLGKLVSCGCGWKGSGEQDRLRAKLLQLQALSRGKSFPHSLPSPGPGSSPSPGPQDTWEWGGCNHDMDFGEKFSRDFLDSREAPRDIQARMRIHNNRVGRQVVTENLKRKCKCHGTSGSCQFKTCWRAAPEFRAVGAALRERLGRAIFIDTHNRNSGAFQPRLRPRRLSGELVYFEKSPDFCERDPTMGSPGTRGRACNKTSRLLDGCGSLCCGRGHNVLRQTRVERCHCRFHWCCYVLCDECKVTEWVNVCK

Experiments:
[1] = biological target: T1, HiBiT-FZD9-mCherry (mouse) (UniProt Q9R216); test: confocal microscopy of fluorescent ligand on live cells; U-2 OS cells stably expressing HiBiT-FZD1-10-mCherry incubated with eGFP-Wnt3a conditioned medium for 3 h, then imaged
T1 sequence: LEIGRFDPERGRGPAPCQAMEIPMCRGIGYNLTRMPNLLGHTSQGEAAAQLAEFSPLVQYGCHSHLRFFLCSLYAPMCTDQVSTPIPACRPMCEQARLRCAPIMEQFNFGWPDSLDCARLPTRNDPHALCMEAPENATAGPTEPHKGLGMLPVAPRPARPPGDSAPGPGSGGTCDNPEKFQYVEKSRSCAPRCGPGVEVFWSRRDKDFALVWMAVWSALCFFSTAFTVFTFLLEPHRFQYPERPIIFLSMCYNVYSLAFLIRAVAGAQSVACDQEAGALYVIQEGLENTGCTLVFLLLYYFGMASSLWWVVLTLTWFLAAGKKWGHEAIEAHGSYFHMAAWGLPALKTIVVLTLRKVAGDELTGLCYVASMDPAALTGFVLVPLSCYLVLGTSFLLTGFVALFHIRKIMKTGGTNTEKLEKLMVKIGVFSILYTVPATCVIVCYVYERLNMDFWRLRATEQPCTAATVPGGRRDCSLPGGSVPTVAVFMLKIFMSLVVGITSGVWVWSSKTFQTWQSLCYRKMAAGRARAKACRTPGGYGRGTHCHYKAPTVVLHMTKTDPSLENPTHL

[2] = biological target: HiBiT-FZD5-mCherry (NCI-H1703 cells) (mouse) (UniProt Q9EQD0); test: confocal microscopy of fluorescent ligand on live cells; NCI-H1703 cells stably expressing HiBiT-FZD(4,5,8,10)-mCherry incubated with eGFP-Wnt conditioned medium (1 h in the methods, 3 h in the legend of Figure 1A), then imaged
HiBiT-FZD3-mCherry = biological target: T2, HiBiT-FZD3-mCherry (UniProt Q61086); test: FRET or BRET; NanoBiT/BRET association kinetics on live U-2 OS cells stably expressing low levels of HiBiT-FZD-mCherry; LgBiT and Vivazine added; four concentrations of eGFP-Wnt conditioned medium (Wnt3a up to 15.2 nM, Wnt5a up to 17.3 nM, Wnt16 up to 24 nM); 37 °C, DMEM with 5% FBS and 10 mM HEPES, read every 80 s for 300 min; kinetic Kd
T2 sequence: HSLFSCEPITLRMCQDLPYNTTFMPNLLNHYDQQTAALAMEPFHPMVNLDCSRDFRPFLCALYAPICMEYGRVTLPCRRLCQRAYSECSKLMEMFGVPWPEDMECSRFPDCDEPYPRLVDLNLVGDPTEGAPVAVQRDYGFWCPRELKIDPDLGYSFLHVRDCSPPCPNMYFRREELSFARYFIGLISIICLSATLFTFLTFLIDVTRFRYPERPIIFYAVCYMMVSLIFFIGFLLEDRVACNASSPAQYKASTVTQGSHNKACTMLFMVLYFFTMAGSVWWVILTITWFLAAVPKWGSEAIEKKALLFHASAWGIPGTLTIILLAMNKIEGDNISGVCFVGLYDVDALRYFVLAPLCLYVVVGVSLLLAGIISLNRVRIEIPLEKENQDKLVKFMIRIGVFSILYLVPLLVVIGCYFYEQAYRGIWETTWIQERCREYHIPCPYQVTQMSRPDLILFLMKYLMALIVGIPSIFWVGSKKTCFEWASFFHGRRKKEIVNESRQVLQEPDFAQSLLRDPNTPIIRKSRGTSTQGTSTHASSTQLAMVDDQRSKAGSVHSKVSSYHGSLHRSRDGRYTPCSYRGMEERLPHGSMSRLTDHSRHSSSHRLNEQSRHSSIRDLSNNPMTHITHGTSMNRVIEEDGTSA

[3] = biological target: T3, HiBiT-FZD4-mCherry (mouse) (UniProt Q61088); test: as above
T3 sequence: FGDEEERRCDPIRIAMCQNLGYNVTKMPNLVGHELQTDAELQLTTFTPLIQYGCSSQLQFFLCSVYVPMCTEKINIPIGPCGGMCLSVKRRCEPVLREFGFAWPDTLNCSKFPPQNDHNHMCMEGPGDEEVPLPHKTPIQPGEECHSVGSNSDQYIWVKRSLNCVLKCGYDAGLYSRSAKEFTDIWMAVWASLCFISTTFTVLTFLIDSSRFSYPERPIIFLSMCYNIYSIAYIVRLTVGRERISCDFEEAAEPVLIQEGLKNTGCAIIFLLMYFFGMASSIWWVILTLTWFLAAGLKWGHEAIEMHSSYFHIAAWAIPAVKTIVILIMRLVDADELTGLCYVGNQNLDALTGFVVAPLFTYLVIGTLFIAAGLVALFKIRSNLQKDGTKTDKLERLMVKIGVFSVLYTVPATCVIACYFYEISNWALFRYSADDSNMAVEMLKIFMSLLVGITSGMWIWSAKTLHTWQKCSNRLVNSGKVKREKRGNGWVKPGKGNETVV

[4] = biological target: HiBiT-FZD5-mCherry (U-2 OS cells) (mouse) (UniProt Q9EQD0); test: as above
HiBiT-FZD6-mCherry = biological target: T4, HiBiT-FZD6-mCherry (UniProt Q61089); test: as above
T4 sequence: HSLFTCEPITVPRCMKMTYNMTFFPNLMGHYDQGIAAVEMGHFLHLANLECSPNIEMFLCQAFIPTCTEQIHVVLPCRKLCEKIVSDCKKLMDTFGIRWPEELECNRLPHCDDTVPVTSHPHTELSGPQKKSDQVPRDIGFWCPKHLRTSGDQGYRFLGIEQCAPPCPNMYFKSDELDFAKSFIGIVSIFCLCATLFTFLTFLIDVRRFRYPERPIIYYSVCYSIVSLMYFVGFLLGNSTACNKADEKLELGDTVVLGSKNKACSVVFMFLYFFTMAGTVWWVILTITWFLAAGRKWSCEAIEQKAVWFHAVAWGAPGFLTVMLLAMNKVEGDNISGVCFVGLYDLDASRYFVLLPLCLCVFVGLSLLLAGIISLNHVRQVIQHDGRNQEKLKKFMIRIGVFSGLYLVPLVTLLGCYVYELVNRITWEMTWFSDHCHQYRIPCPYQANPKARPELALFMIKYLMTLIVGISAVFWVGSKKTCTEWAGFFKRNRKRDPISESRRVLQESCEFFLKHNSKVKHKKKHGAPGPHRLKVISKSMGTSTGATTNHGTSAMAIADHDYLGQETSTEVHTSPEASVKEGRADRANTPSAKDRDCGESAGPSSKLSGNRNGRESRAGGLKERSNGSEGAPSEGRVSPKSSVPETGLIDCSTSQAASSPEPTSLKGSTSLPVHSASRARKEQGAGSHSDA

[5] = biological target: HiBiT-FZD8-mCherry (mouse) (UniProt Q61091); test: as above
[6] = biological target: T1, HiBiT-FZD9-mCherry (mouse); test: as above

binding [1] | binding [2] | binding (HiBiT-FZD3-mCherry) | binding [3] | binding [4] | binding (HiBiT-FZD6-mCherry) | binding [5] | binding [6] | Substance
no binding | binds | no binding (tested: 15.2 nM) | binds | binds | no binding (tested: 15.2 nM) | binds | no binding (tested: 15.2 nM) | eGFP-Wnt3a (from UniProt P27467 19-352) (ligand)
– | binds | – | – | – | – | – | – | eGFP-Wnt10b (from UniProt O00744 29-389) (ligand)
